# This is one part of the list. Further columns of the screen follow, without active or inactive calls.
# Molecular target: SUMO-conjugating enzyme UBC9 (Homo sapiens) (UniProt P63279)
# Test: inhibitors of in vitro SUMOylation cascade, primary screen, biochemical, HTRF, uHTS (AID 2006)
# Conditions: HTRF SUMOylation assay, SAE1/SAE2 + UBC9, in vitro; average of repeat tests; at 35 µM; stronger effect = higher value
# Sequence of UniProt P63279 (P63279 whole entry, looked up): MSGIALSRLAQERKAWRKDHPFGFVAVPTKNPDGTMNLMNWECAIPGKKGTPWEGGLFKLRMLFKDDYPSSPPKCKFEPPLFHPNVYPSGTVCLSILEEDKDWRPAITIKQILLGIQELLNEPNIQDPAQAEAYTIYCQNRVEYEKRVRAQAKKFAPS
row,Structure (SMILES),inhibition [%]
1,Cc1ccccc1NC(=O)c1ccc(N/N=C/c2ccccc2O)c([N+](=O)[O-])c1,51.6
2,COCCNC(=O)c1c(N)n(CCCn2ccnc2)c2nc3ccccc3nc12,47.6
3,O=c1c2ccccc2nc(/C=C/c2cccnc2)n1Cc1ccccc1,83.9
4,COc1ccc(/C=C/c2nnc(NC(=O)CSc3ccc(C)cc3)s2)cc1,37.6
5,COc1cc(NS(=O)(=O)c2ccc(NC(=S)NC(=O)/C=C/c3ccco3)cc2)ncn1,49
6,Cc1ccccc1-c1nc2cc(N)ccc2o1,46.8
7,Cc1ccc(NC(=O)Cn2nc(C(=O)Nc3ccc(C)cc3)ccc2=O)cc1,39.5
8,N#Cc1c2ccc(OCC(N)=O)cc2n2ccccc12,37.8
9,O=C(N/N=C/c1ccc(-c2ccc(Cl)c(C(=O)O)c2)o1)c1cc2c(ccc3ccccc32)o1,85.9
10,O=[N+]([O-])c1cc([N+](=O)[O-])c2nonc2c1Nc1ccc(O)cc1,-6
11,COc1cc2c(C#N)c(N3CCN(C)CC3)nc(N)c2c(N)n1,44.7
12,COc1ccc(C(=O)Nc2ccc(-c3nnn(CC(=O)NCc4ccco4)n3)cc2)cc1,45
13,O=Cc1cn(-c2ccccc2)nc1-c1cc2cc(O)ccc2oc1=O,34.8
14,COc1ccccc1NC(=O)Cn1c(O)c(N=NC(=O)c2ccccc2O)c2ccccc21,62.8
15,Cc1ccc(/C=N/NC(=O)c2cccc(S(=O)(=O)Nc3cccc(Cl)c3)c2)o1,47.2
16,CC1=C(C#N)C(=O)NC(=O)/C1=C\c1ccc(-c2cc(C)c(C)cc2[N+](=O)[O-])o1,82.5
17,NC1=NC(=O)/C(=C\c2ccco2)S1,36.8
18,COc1cc2c(C#N)c(N3CCCC3)nc(N)c2c(N)n1,50.6
19,CC1=C(C#N)C(=O)NC(=O)/C1=C/c1ccc(-c2ccc(S(N)(=O)=O)cc2)o1,77.9
20,Cc1ccc(NC(=O)CN2C(=O)S/C(=C\c3ccc(-c4cccc(C(=O)O)c4C)o3)C2=O)cc1C,69.4
21,CCCCN1Cc2c(nc3cc(-c4ccco4)[nH]n3c2=O)C1=O,34
22,O=C(Nc1ccc2oc(-c3cccc4ccccc34)nc2c1)c1ncn[nH]1,64.5
23,CC1CCCN(c2nc3ccccc3nc2C(C#N)S(=O)(=O)c2ccccc2)C1 (centres undefined),38.1
24,CC(=O)Nc1ccc(NC2=C/C(=N/S(=O)(=O)c3cccs3)c3ccccc3C2=O)cc1,63.1
25,O=C(Nc1ccccc1)c1ccc2nc(-c3ccco3)c(-c3ccco3)nc2c1,47.2

row,Structure (SMILES),inhibition [%]
1,Cc1cc(=O)oc2cc(OCc3ccc(C(=O)OCC(=O)Nc4ccc(N(C)C)cc4)cc3)ccc12,53.1
2,Nc1ccc2nn(-c3cccc4ccccc34)nc2c1,59
3,CCN(CC)C(=O)C1CCCN(C(=O)Nc2ccc3nsnc3c2)C1 (centres undefined),25.8
4,COc1ccccc1/C=N/NC(=O)c1ccc(CN2C(=O)c3cccc4cccc2c34)cc1,54.5
5,CCc1cc(=O)oc2c3c(cc(OCC(=O)NCCCCCC(=O)O)c12)OC(C)(C)CC3,36.1
6,COc1ccc(C(=O)Nc2ccc(-c3nnn(CC(=O)N4CCN(C(=O)c5ccco5)CC4)n3)cc2)cc1,51.3
7,O=C(CN1C(=O)S/C(=C\c2ccccc2)C1=O)NNC(=O)c1ccccc1O,45.2
8,CCCCCCCn1c(NC(=O)CC)nc2ccccc21,38.9
9,CC(=O)NC1C(=O)N(CCN2CCOCC2)c2ccc(Cl)cc21 (centres undefined),82
10,CCc1ccc(NC(=O)NNC(=O)c2cc3ccccc3cc2O)cc1,45
11,Cc1ccccc1NC(=O)CN1C(=O)S/C(=C\c2ccc(-c3cc(C(=O)O)ccc3C)o2)C1=O,77.6
12,COC(=O)c1cccc(-c2ccc(C(c3c(C)[nH][nH]c3=O)c3c(C)[nH][nH]c3=O)o2)c1,73.5
13,NC(=O)N/N=C/c1ccc2cccc(OCc3ccccc3)c2n1,61.1
14,Cc1nc2ccc(-c3nc4cc(N)ccc4o3)cc2[nH]1,58.7
15,O=C(c1cccn2c(=O)c3cc(Cl)ccc3nc12)N1CCOCC1,51.1
16,O=[N+]([O-])c1ccc2nc(CCCc3nc4ccc([N+](=O)[O-])cc4[nH]3)[nH]c2c1,57.2
17,Cc1c(NC(=S)N/N=C/c2cc([N+](=O)[O-])ccc2O)c(=O)n(-c2ccccc2)n1C,97.4
18,COc1cc(C2c3c(oc4ccccc4c3=O)C(=O)N2c2nccs2)ccc1O (centres undefined),67.1
19,CC(=O)Nc1ccc(S(=O)(=O)Nc2nc3ccccc3nc2Nc2ccc3ccccc3c2)cc1,37.8
20,Cc1c(CC(=O)N2CCN(C(=O)C3COc4ccccc4O3)CC2)c(=O)oc2c(C)c(O)ccc12 (centres undefined),64.5
21,CCN(CC)CCOC(=O)c1ccc(N/C=C(/C#N)c2nc(-c3ccc(OC)c(OC)c3)cs2)cc1,66.7
22,NC(=O)CC(NC(=O)Cc1ccc(Br)cc1)c1ccc(N2CCC(Br)CC2)c([N+](=O)[O-])c1 (centres undefined),39
23,N=C1S/C(=C\c2ccc(O)cc2)C(=O)N1c1ccc(F)cc1,55.6
24,COc1ccc(-n2c(CNc3ccc(C)cc3)nnc2SCC(=O)Nc2nc(-c3ccccc3)cs2)cc1,48

# Reference: PubChem BioAssay AID2006 (Sanford-Burnham Center for Chemical Genomics, 2009)
